The campaign covered roughly 420,000 compounds. About 50,000 (12%) were called active. The inconclusive results got no clear call from the source; some entries with a clear call stand among them for comparison. The call rests on the fitted dose curve; in most records, active means well fitted inhibition curve with a large enough effect; inconclusive means small, poorly fitted or top-dose-only effect; inactive means flat fitted curve, though single readings scatter. No potency is given beside an inconclusive call; the fits are too rough.
test: qHTS for Inhibitors of human tyrosyl-DNA phosphodiesterase 1 (TDP1): qHTS in cells in presence of CPT; conditions: chicken DT40 Tdp1-/-;hTDP1 cells + 20 nM CPT, ATP luminescence, 48 h; activity change, negative = growth inhibition: at 46.2 µM (top of the series); further: nearly all actives have a fitted effect of over 55% in size
Outline: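 Chicken DT40 Tdp1-/- cells stably complemented with human TDP1 were seeded at 400 cells/well in medium containing 20 nM camptothecin, exposed to pin-transferred compounds, and grown at 37 °C for at least 48 hr. Viability was read as ATP luminescence.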
On the % scale 0 is the no-effect control and ±100 the full control effect; potency means the concentration at half of the fitted maximal effect; tags describe the fitted curve by direction and shape.

| SMILES | Potency | activity change, negative = growth inhibition |
| --- | --- | --- |
| O=S(=O)(Nc1ccc2c(c1)OCCO2)c1cnc[nH]1 | inactive |  |
| O=C(Nc1ccc(Cl)cc1)Nc1cnccn1 | inconclusive [inhibitor, single point] |  |
| Cn1nc(C(C)(C)C)c([N+](=O)[O-])c1C(=O)Nc1ccc(Br)cc1 | inconclusive [inhibitor, single point] |  |
| CCN(CC)C1CC(=O)N(c2cccc(Cl)c2)C1=O (stereo unspecified) | inconclusive [inhibitor, single point] |  |
| CCOC(=O)c1c(CN(C)C)n(C)c2ccc(OC(C)=O)cc12 | inactive |  |
| Cc1cccc(NC(=O)CSc2nccn2Cc2ccco2)c1C | inconclusive [inhibitor, single point] |  |
| COC(=O)c1c(NC(=O)CN2CCC(C(N)=O)CC2)c2c(C)cccc2n1C | inactive |  |
| Cc1cnc(SCc2ccccn2)nc1C1CCCN(C(=O)c2noc3c2CCCC3)C1 (stereo unspecified) | active: 10.3 µM |  |
| CCOC(=O)N1CCN(C(=O)C[C@@H]2C[C@@]3(C(=O)OC)CCCCC=C3N(Cc3ccc(Cl)cc3Cl)C2=O)CC1 | active: 20.6 µM |  |
| CN(C)/C=N/c1ncc(C(=O)c2ccc3ccccc3c2)s1 | inconclusive [inhibitor, single point] |  |
| O=C(CCC(=O)N1CCCC1)Nc1ccc(Cl)c(Cl)c1 | inactive |  |
| Cc1cc(C)c(NC(=O)CNC(=O)c2cc(C3CC3)nc3c2cnn3C(C)C)c(C)c1 | inconclusive [inhibitor, single point] |  |
| CC1(C)CC(=O)N(Cc2ccccc2)C(=O)C1 | inconclusive [inhibitor, single point] |  |
| O=C(CCCn1c(=O)c2ccccc2n(Cc2cccc(F)c2)c1=O)NCc1ccccc1Cl |  | inconclusive: -23.7% [inhibitor] |
| O=C(Nc1ccc(S(=O)(=O)N(Cc2ccccc2)c2ccccc2)cc1)c1ccc(F)cc1 | active: 23.1 µM |  |
| COc1ccc(N(CC(O)Cn2c(C)nc3ccccc32)S(=O)(=O)c2ccc(C)cc2)cc1 (stereo unspecified) | inconclusive [inhibitor, partial curve] |  |
| COc1ccc(NC(=O)/C(N=Nc2cccc(S(=O)(=O)Nc3ccc(SC(F)F)cc3)c2)=C(\C)O)cc1 | inconclusive [inhibitor, single point] |  |
| COc1ccc(CNC(=O)C(c2ccncc2)N(C(=O)Cc2cccs2)c2ccccc2)cc1 (stereo unspecified) | inconclusive [inhibitor, single point] |  |
| CCCCNC(=O)c1sc2ncccc2c1-n1cccc1 | active: 11.6 µM |  |
| Cc1nc2ccccc2cc1C(=O)N/N=C/c1ccco1 | inactive |  |
| C/C(=N\NC(=O)C1CC1)c1ccc2c(c1)OCCO2 | inactive |  |
| CC(C)OP(=O)(OC(C)C)C(NC(=O)c1ccccc1Br)C(N)=O (stereo unspecified) | inactive |  |
| CCC(C)n1c(SCC(=O)NC(=O)c2cccn2C)nc2ccccc2c1=O (stereo unspecified) | inconclusive [inhibitor, single point] |  |
| O=C(CCC1CCCCC1)NCCN1C2=NC[C@H](Cc3ccc(O)cc3)N2C[C@H]1Cc1ccc(O)cc1 | inconclusive [inhibitor, single point] |  |

| SMILES | Potency | activity change, negative = growth inhibition |
| --- | --- | --- |
| CCc1nc(SCC(=O)NCc2ccco2)c2c(=O)n(C)c(=O)n(C)c2n1 | inconclusive [inhibitor, single point] |  |
| Cc1cc(=O)oc2cc(OS(C)(=O)=O)ccc12 | inactive |  |
| O=C(c1cc2nc(-c3ccc(F)cc3)cc(C(F)(F)F)n2n1)N1CCCCC1c1cccnc1 (stereo unspecified) | active: 13 µM |  |
| Cc1noc(C)c1COc1cccc(C(=O)N(C)Cc2nc3ccccc3c(=O)[nH]2)c1 | inactive |  |
| Cc1ccc(NCC(=O)c2ccc([N+](=O)[O-])cc2)cc1 | inconclusive [inhibitor, single point] |  |
| CN(C)c1ccc(CCC2C=Cc3ccccc32)cc1 (stereo unspecified) | inconclusive [inhibitor, single point] |  |
| Cc1ccc(C(O)(COC(=O)C(C)C)COC(=O)C(C)C)c(O)c1 | active: 4.61 µM |  |
| O=C(NCCCc1nc2ccccc2n1Cc1ccccc1F)c1ccco1 | inconclusive [inhibitor, single point] |  |
| COC(=O)C(CCSC)NC(=O)c1cc2c(n(-c3ccccc3)c1=O)CC(C)(C)CC2=O (stereo unspecified) | inactive |  |
| CN1C(=O)c2ccccc2Sc2ccc(NC(=O)c3ccc(C#N)cc3)cc21 | inconclusive [inhibitor, single point] |  |
| CCn1cc([N+](=O)[O-])c(C(=O)N2N=C(c3ccc(O)c(OC)c3)CC2c2ccccc2O)n1 (stereo unspecified) | inconclusive [inhibitor, single point] |  |
| COc1ccc(-c2cc(C(=O)Nc3c(C)n(C)n(-c4ccccc4)c3=O)no2)cc1 | inconclusive [inhibitor, partial curve, poor fit] |  |
| COc1cccc(Oc2cn[nH]c2-c2ccc(OCC(=O)NN)cc2O)c1 | inconclusive [inhibitor, partial curve] |  |
| O=c1n(-c2ccccc2)c(=O)n(Cc2ccccn2)n1Cc1ccccn1 | inactive |  |
| Cc1cccc(NS(=O)(=O)c2ccc3c(c2)CCCN3C(=O)C2CCC2)c1C | active: 20.6 µM |  |
| CCc1ccc(NC(=O)CCc2nnc3ccc(N4CCCC4)nn23)cc1 | inconclusive [inhibitor, single point] |  |
| CCCN(CC(=O)Nc1ccccc1C)C(=O)c1ccc(OCc2c(C)noc2C)cc1 | inactive |  |
| COc1cc(CNc2ccc3[nH]c(=O)[nH]c3c2)cc(Cl)c1OCc1ccc(F)cc1 | active: 18.4 µM |  |
| Cc1nn(C(C)(C)C)c(OC(=O)c2c(F)cccc2F)c1Sc1ccccc1 | inconclusive [inhibitor, partial curve, poor fit] |  |
| CN1CCN(NC(=O)c2ccc(S(=O)(=O)N3CCCCCC3)cc2)CC1 | inactive |  |
| COc1ccc(C(CNC(=O)COc2ccccc2-c2ccccc2)N2CCOCC2)cc1 (stereo unspecified) | inconclusive [inhibitor, single point] |  |
| C/C(N)=C(/C#N)C(=O)CSc1nc2ccccc2c(=O)n1CCCOC(C)C | inconclusive [inhibitor, partial curve] |  |
| Cc1cccc(C(=O)Nc2ccccc2OCc2cc(=O)n3c(C)csc3n2)c1 | inactive |  |
| O=C(Nc1ccc(C(=O)OCc2cc(=O)n3c4c(sc3n2)CCCC4)cc1)c1cccc(F)c1 | inconclusive [inhibitor, single point] |  |

| SMILES | Potency | activity change, negative = growth inhibition |
| --- | --- | --- |
| O=C(c1ccccc1)n1c(=S)nc2ccccn21 | inconclusive [inhibitor, partial curve] |  |
| S=C(Nc1cccc(Cl)c1Cl)N1CCC2(CC1)OCCO2 | inactive |  |
| O=C(Nc1ccncc1)c1ccc(S(=O)(=O)Nc2ccccc2)cc1 | active: 14.6 µM |  |
| CCc1nc(Cl)c(C#N)c2c1CSC(C)(C)C2 | inactive |  |
| O=C(COC(=O)c1cnccn1)c1ccc(Cl)c([N+](=O)[O-])c1 | inconclusive [inhibitor, single point] |  |
| CN1CCN(c2ccnc(-c3cccnc3)n2)CC1 | inactive |  |
| COc1cccc(N2CCN(C(=O)c3cc(-c4ccccc4)nc4c3cnn4C(C)C)CC2)c1 | inconclusive [inhibitor, single point] |  |
| Cc1cccn2c(Nc3ccccc3)c(-c3ccccn3)nc12 | active: 18.4 µM |  |
| Cn1c(=O)c2c(ncn2CC(=O)OCC(=O)Nc2cc(Cl)ccc2Cl)n(C)c1=O | inactive |  |
| Cc1noc(/C=C/c2ccccc2F)c1S(=O)(=O)N1CCC(C(=O)N2CCN(C)CC2)CC1 | inconclusive [inhibitor, single point] |  |
| CC(C)(C)NC(=O)CC(CC(=O)O)c1ccccc1 (stereo unspecified) | inactive |  |
| COc1ccc(-c2oc3ccc(-c4ccc5c(c4)OCO5)cc3c2C#CC2(O)CCCCC2)cc1 | inconclusive [inhibitor, single point] |  |
| CCOC(=O)C1=C(N)n2c(s/c(=C\c3ccco3)c2=O)=C(C(=O)OC(C)C)C1c1ccco1 (stereo unspecified) | inconclusive [inhibitor, single point] |  |
| O=C(CSc1nnc(-c2ccc(Cl)cc2)n1Cc1ccco1)Nc1ccc2c(c1)OCCO2 | inconclusive [inhibitor, single point] |  |
| COc1ccc2nc(-c3ccccc3)cc(C(=O)OCC(=O)N3CCCCC3)c2c1 | inconclusive [inhibitor, single point] |  |
| Cn1c(SC(C(=O)Nc2ccc(F)cc2)c2ccccc2)nc2ccccc21 (stereo unspecified) | inconclusive [inhibitor, single point] |  |
| COc1ccc(CCNc2nc3c(c(=O)n(C)c(=O)n3C)n2Cc2ccccc2Cl)cc1OC | active: 13 µM |  |
| CCOC(=O)C1=CCN(S(=O)(=O)c2ccccc2Cl)C1c1cccc(Br)c1 (stereo unspecified) | inconclusive [inhibitor, single point] |  |
| CCC(C)Sc1ccc(-c2nc3ccc(C)cn3c2NCc2ccccc2)cc1 (stereo unspecified) | active: 23.1 µM |  |
| C=CCn1c(SCC(=O)NC2CCCC2)nc2sc(C)cc2c1=O | inconclusive [inhibitor, single point] |  |
| CN(C1CCCCC1)S(=O)(=O)c1ccc(NC(=O)c2ccc(Br)o2)cc1 | inconclusive [inhibitor, single point] |  |
| CC(=O)N(CCc1cccc(C)c1)Cc1cc2cc(C)ccc2[nH]c1=O | active: 14.6 µM |  |
| CCOc1ccc(Nc2c3c(nc4nncn24)CCC3)cc1 | inconclusive [inhibitor, partial curve] |  |
